Source: a compilation of properties of binary mixtures (doi:10.1021/acs.jpcb.6b10562)
The densities may have been worked out from excess volumes.

Assay: xn = mol fraction of the nth substance listed
Conditions: 293.15 K, 101 kPa

C[N+](C)(C)CCO.O=S(=O)([N-]S(=O)(=O)C(F)(F)F)C(F)(F)F + O
Conditions | mass density [kg/m3]
x1 = 0.0838 | 1199.8
x1 = 0.154 | 1371.4
x1 = 0.28 | 1449.2
x1 = 0.3358 | 1467
x1 = 0.4775 | 1490.4
x1 = 0.5158 | 1493
x1 = 0.6466 | 1504.7
x1 = 0.7847 | 1513.3
x1 = 0.8164 | 1519.2
x1 = 1 | 1528.4
